The test system of this series is spider mite Tetranychus telarius. As to conditions: assessed after 5 days. Here is the method: Potted bush beans which had developed the first pair of true leaves and were heavily infested with all stages of the spider mite Tetranychus telarius were sprayed to runoff in a spray cabinet with aqueous formulations of the active ingredients. The plants were placed on a rotating disc and sprayed from all sides with 50 ml of spray liquor. The plants were heavily infested with mites and numerous eggs had been laid on them. The action was assessed after 5 days by means of a binocular microscope. During this period, the plants were kept under normal greenhouse conditions.

Like-named read-outs stand apart in the source and are kept apart here.

As for `COC=C(C(=O)OC)c1ccccc1CON=C(C#N)C(C)C` [49 (Table I)], the Mortality in % (application rate 100 ppm) turned out to be 80%.

In the case of `COC=C(C(=O)OC)c1ccccc1CON=C(C#N)OC1CCCCO1` (stereo not drawn) [429 (Table I)], where the note is “application rate 1000 ppm”, the Mortality in % worked out at 100%.

In the case of `COC=C(C(=O)OC)c1ccccc1CON=C(C#N)C(C)(C)OC` [Compound no. 36 (Table I)], where the note is “application rate 100 ppm”, the Mortality in % is 80%.

`CCOC(C)(C)C(C#N)=NOCc1ccccc1C(=NOC)C(=O)OC` [Compound no. 37 (Table II)] came in with a Mortality in % (application rate 1000 ppm) of 100%.

The compound `CCCOC(C)(C)C(C#N)=NOCc1ccccc1C(=COC)C(=O)OC` [Compound no. 38 (Table I)] came in with a Mortality in % (application rate 40 ppm) of 100%.

Turning to `COC=C(C(=O)OC)c1ccccc1CON=C(C#N)C(C)(C)OC(C)C` [Compound no. 39 (Table I)], the Mortality in % (application rate 100 ppm) is given as 100%.

Under “application rate 1000 ppm”, `CON=C(C(=O)OC)c1ccccc1CON=C(C#N)C(C)(C)OC(C)C` [Compound no. 39 (Table II)] returned a Mortality in % of 100%.

As for `COC=C(C(=O)OC)c1ccccc1CON=C(C#N)C(C)(C)SC` [Compound no. 43 (Table I)], the Mortality in % (application rate 1000 ppm) stood at 100%.

Turning to `COC=C(C(=O)OC)c1ccccc1CON=C(C#N)C(C)(C)SC(C)(C)C` [Compound no. 45 (Table I)], for the setting “application rate 1000 ppm”, the Mortality in % came to 100%.

`CON=C(C(=O)OC)c1ccccc1CON=C(C#N)C(C)(C)SC(C)(C)C` [Compound no. 45 (Table II)] showed a Mortality in % (application rate 1000 ppm) of 100%.

`COC=C(C(=O)OC)c1ccccc1CON=C(C)c1ccccc1Cl` [Compound no. 573 (Table I)] returned a Mortality in % (application rate 20 ppm) of 100%.

In turn, `COC=C(C(=O)OC)c1ccccc1CON=C(C)c1cc(Cl)ccc1Cl` [Compound no. 579 (Table I)] returned a Mortality in % (application rate 20 ppm) of 80%.

Regarding `COC=C(C(=O)OC)c1ccccc1CON=C(C)c1cc(Cl)cc(Cl)c1` [Compound no. 582 (Table I), Methyl 3-methoxy-2-[2′-[1″-(3′″,5′″-dichlorophenyl)-1″-methyl]-iminooxymethyl]-phenylacrylate], where the note is “application rate about 20 ppm”, the Mortality in % was 100%.

On to `COC=C(C(=O)OC)c1ccccc1CON=C(C)c1ccc(Cl)c(Cl)c1Cl` [Compound no. 583 (Table I)], for which the Mortality in % (application rate 40 ppm) is on record as 100%.

Take `COC=C(C(=O)OC)c1ccccc1CON=C(C)c1cccc(Br)c1` [Compound no. 592 (Table I)]: where the note is “application rate 40 ppm”, the Mortality in % is recorded as 100%.

`COC=C(C(=O)OC)c1ccccc1CON=C(C)c1ccc(Br)cc1` [Compound no. 593 (Table I), Methyl 3-methoxy-2-[2′-(1″-(4′″-bromophenyl)-1″-methyl)-iminooxymethyl]-phenylacrylate]: the Mortality in % (application rate 1000 ppm) is 80%.

Take `COC=C(C(=O)OC)c1ccccc1CON=C(C)c1ccccc1C(F)(F)F` [Compound no. 704 (Table I)]: the Mortality in % (application rate about 20 ppm) is listed as 100%.

In turn, `COC=C(C(=O)OC)c1ccccc1CON=C(C)c1cccc(C(F)(F)F)c1` [Compound no. 705 (Table I)] displayed a Mortality in % (application rate 40 ppm) of 100%.

These data come from USRE37839E1, “O-benzyloxime ethers and crop protection agents containing these compounds” (BASF Aktiengesellschaft, priority 1990, dated 2002).
